From PubChem BioAssay AID504845 (National Center for Advancing Translational Sciences (NCATS), 2011)
Among all 390,000 compounds or so, about 150 (0.038%) were called active. The shares of active, inactive and inconclusive entries below differ from those in the screen. Calls follow the shape of the dose curve; as a rule, active = well fitted inhibition curve with a large enough effect; inconclusive = small, poorly fitted or top-dose-only effect; inactive = no such curve, though single readings can be large or run the other way. Potencies of inconclusive entries are doubtful fits and often do not repeat.
% is scaled to controls: 0 for no effect and ±100 for the full control effect; potency is read from the fitted curve at half-maximal effect; tags tell the direction and shape of the fitted curve.
Also: nearly all actives have a fitted effect of over 75% in size.

Each molecule was assayed against Regulator of G-protein signaling 4 (Homo sapiens) (UniProt P49798) (assay: Inhibitors of Regulator of G Protein Signaling (RGS) 4: qHTS). Settings: Transcreener GDP fluorescence polarization, RGS4-accelerated GTP hydrolysis; series mostly up to 114 µM; activity change, negative = inhibition: at the top concentration.
UniProt P49798, sequence (P49798 whole entry, looked up): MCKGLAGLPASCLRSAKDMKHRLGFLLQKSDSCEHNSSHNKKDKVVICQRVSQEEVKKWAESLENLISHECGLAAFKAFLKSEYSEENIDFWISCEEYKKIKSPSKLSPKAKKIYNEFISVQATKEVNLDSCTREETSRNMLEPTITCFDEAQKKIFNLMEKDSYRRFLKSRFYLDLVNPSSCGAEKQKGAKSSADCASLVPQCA
In short: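 MLSMR compounds (23 nl, pin-transferred) preincubated 10 min at room temperature with a 500nM (2x) first reagent, then RGS4 at 900nM (2x) plus Transcreener GDP mix added; fluorescence polarization (620/688 nm) read before and after 90 min at 30 °C.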
In the case of `CCOc1ccccc1NC(=O)/C(C#N)=C/c1c(C)nn(-c2ccccc2)c1Cl`, the Potency is reported as inconclusive: 50.1 µM [inhibitor, partial curve, poor fit].
`COc1ccc(-n2c(=O)c3c4c(sc3n3c(=S)[nH]nc23)CCCC4)cc1` was tested, and the Potency was inconclusive: 17.8 µM [inhibitor, full curve, poor fit].
For `O=C(c1ccco1)N1CCN(C(=O)c2ccc(-c3ccc([N+](=O)[O-])cc3)o2)CC1`, the Potency was inconclusive: 79.4 µM [inhibitor, partial curve, poor fit].
`CCOC(=O)c1cc(C)sc1/N=C/C1=C(O)CCCC1=O` was tested, and the Potency was inconclusive: 28.2 µM [inhibitor, full curve, poor fit].
In the case of `COc1cc(C=O)cc(OC)c1OS(=O)(=O)c1ccc(NC(C)=O)cc1`, the “activity change, negative = inhibition” value is reported as inactive: -8.39%.
In the case of `O=[N+]([O-])c1ccc2c(c1)/C(=N\O)c1ccccc1-2`, the Potency is reported as inconclusive: 79.4 µM [inhibitor, partial curve, poor fit].
`Cc1ccc(N/N=C2\COC(C)(C)CC2=O)cc1` was tested, and the Potency was inconclusive: 79.4 µM [inhibitor, single point].
In the case of `CCCCNC(=O)c1nn(C)c2c1CSc1ccccc1-2`, the “activity change, negative = inhibition” value is reported as inactive: -20.2%.
`C=CCNC(=S)NNC(=O)c1cccn(Cc2ccc(Cl)c(Cl)c2)c1=O` was tested, and the Potency was inconclusive: 89.1 µM [inhibitor, partial curve, poor fit].
For `COc1ccccc1NC(=S)NC(=O)/C=C/c1ccco1`, the Potency was inconclusive: 50.1 µM [inhibitor, partial curve, poor fit].
`O=C(CN1CCN(c2ccc(O)cc2)CC1)N(C1CC1)C1CCS(=O)(=O)C1` (stereo unspecified) was tested, and the Potency was inconclusive: 89.1 µM [inhibitor, single point].
In the case of `CC(C)(C)C(=O)Nc1sc2c(c1C(=O)Nc1ccccn1)CCCC2`, the Potency is reported as inconclusive: 89.1 µM [inhibitor, partial curve, poor fit].
`CCOC(=O)/C(=N\Nc1ccc(Cl)cc1)Sc1nnc(-c2ccc(OC)cc2)n1C` was tested, and the Potency was inconclusive: 56.2 µM [inhibitor, partial curve, poor fit].
In the case of `C[n+]1c2n(c3ccccc31)N=C(c1ccc(Cl)cc1)CS2`, the Potency is reported as inconclusive: 56.2 µM [inhibitor, partial curve, poor fit].
For `COc1ccc(C(C#N)N2CCC(c3ccccc3)=N2)cc1` (stereo unspecified), the “activity change, negative = inhibition” value was inactive: -19.3%.
`CN(C)S(=O)(=O)c1ccc(NCC2COc3ccccc3O2)c([N+](=O)[O-])c1` (stereo unspecified) was tested, and the Potency was inconclusive: 44.7 µM [inhibitor, partial curve, poor fit].
`COc1cc(NC(=O)CC2C(=O)N(c3ccccc3)C(=O)N2Cc2ccc(F)cc2)cc(OC)c1` (stereo unspecified) was tested, and the “activity change, negative = inhibition” value was inactive: 2.58%.
With `O=c1c(Cc2ccc(Cl)cc2Cl)c(O)ccn1CC(F)(F)F` the Potency was inconclusive: 89.1 µM [inhibitor, single point].
`O=c1cc(-c2ccccc2)[nH]n1-c1nc2ccccc2[nH]1` was tested, and the “activity change, negative = inhibition” value was inactive: -16.1%.
For `Brc1cccc(OCCN2CCCCC2)c1`, the “activity change, negative = inhibition” value was inactive: -17%.
`CC1=C(C(=O)OC(C)C)[C@@H](c2cccc3nonc23)C([N+](=O)[O-])=C(C)N1` was tested, and the Potency was inconclusive: 0.267 µM [inhibitor, partial curve, poor fit].
With `CCOC(=O)CN1C(=O)COc2ccc(C(C)(C)C)cc21` the Potency was inconclusive: 89.1 µM [inhibitor, single point].
With `COc1ccccc1-c1nn2c(-c3ccco3)nnc2s1` the “activity change, negative = inhibition” value was inactive: -41.3%.
`C#CCOCCOCCOCCNc1nc(N2CCN(C(=O)CCCCCCCCCCNC(=O)Cn3cc(CCCCCN)nn3)CC2)nc(N2CCN(C(=O)CCCCCCCCCCNC(=O)[C@H]([C@@H](C)CC)n3cc(CCCCCN)nn3)CC2)n1` was tested, and the Potency was inconclusive: 50.1 µM [inhibitor, partial curve, poor fit].
`CC(=O)c1ccccc1S(=O)(=O)N1CCN(c2nc(-c3cccs3)nc3ccccc23)CC1` was tested, and the “activity change, negative = inhibition” value was inactive: 22.4%.
`COc1ccc(S(=O)(=O)NCc2ccc3c(c2)CCN3C(=O)c2ccccc2)cc1OC` was tested, and the “activity change, negative = inhibition” value was inactive: -0.992%.
In the case of `COc1ccc(C2NC(=S)NC3=C2CCCC3=C2SCCS2)cc1` (stereo unspecified), the Potency is reported as inconclusive: 89.1 µM [inhibitor, partial curve, poor fit].
With `CC(C)=CCC/C(C)=C/CNC(=O)C[C@H]1C[C@H](C(=O)N2CCCCC2)[C@@]2(C)c3[nH]c4cc(-c5ccco5)ccc4c3CCN2C1=O` the Potency was inconclusive: 50.1 µM [inhibitor, partial curve, poor fit].
In the case of `O=C1Nc2ccc3c(c2C1=Cc1cc2c(cc1Br)OCO2)OCO3`, the “activity change, negative = inhibition” value is reported as inactive: -2.22%.
For `O=C(O)c1ccccc1-c1ccc(/C=c2\sc3nc4cc(Br)cnc4n3c2=O)o1`, the Potency was inconclusive: 31.6 µM [inhibitor, partial curve, poor fit].
`CC[C@]12c3[nH]c4cc(-c5ccco5)ccc4c3CCN1C(=O)[C@@H](CC(=O)NC/C=C(\C)CCC=C(C)C)C[C@@H]2C(=O)N1CCN(C(=O)C2CC2)CC1` was tested, and the Potency was inconclusive: 44.7 µM [inhibitor, partial curve, poor fit].
In the case of `CCN(CC)CCNc1nc2cc(OC)c(OC)cc2c2nc(-c3ccccc3)nn12`, the activity change, negative = inhibition is reported as inactive: -5.15% [at 11.4 µM].
With `CCOC(=O)C1=C(C)N=c2s/c(=C/c3cccc([N+](=O)[O-])c3O)c(=O)n2C1c1ccccc1` (stereo unspecified) the Potency was inconclusive: 44.7 µM [inhibitor, partial curve, poor fit].
In the case of `CCCSC1=C(C#N)C(c2ccc(OC)cc2)C2=C(CC(C)(C)CC2=O)N1` (stereo unspecified), the “activity change, negative = inhibition” value is reported as inactive: -3.63%.
For `CCOc1cc(/C=C(\C#N)C(=O)Nc2cccc(C(=O)O)c2)cc(Br)c1OC(=O)c1ccc(OC)cc1`, the Potency was inconclusive: 50.1 µM [inhibitor, partial curve, poor fit].
`Cc1onc(-c2ccccc2)c1C(=O)Nc1nnc(-c2ccncc2)s1` was tested, and the “activity change, negative = inhibition” value was inactive: 17.6%.
For `CCCCOc1ccc(N(CC(=O)NC2CCCCC2)C(=O)c2snc(C(N)=O)c2N)cc1`, the Potency was inconclusive: 89.1 µM [inhibitor, single point].
With `COc1ccc(C(=O)NNC(=O)CN2CCC(n3nnc4cc(C(F)(F)F)ccc43)CC2)cc1` the “activity change, negative = inhibition” value was inactive: -6.56%.
For `CC1CCc2c(sc(Nc3nc4c(F)cccc4s3)c2C(N)=O)C1` (stereo unspecified), the Potency was inconclusive: 50.1 µM [inhibitor, partial curve, poor fit].
With `CCc1ccc(N2CC(C(=O)N/N=C/c3ccccc3)CC2=O)cc1` (stereo unspecified) the Potency was inconclusive: 50.1 µM [inhibitor, partial curve, poor fit].
With `Clc1ccc(OCc2nc(-c3ccccn3)no2)c(Br)c1` the Potency was inconclusive: 89.1 µM [inhibitor, single point].
For `O=C(NN=Cc1c(O)ccc2ccccc12)c1ccncc1`, the Potency was inconclusive: 89.1 µM [inhibitor, single point].
For `CCOc1ccc(CN2CCN(C(=O)c3ccco3)CC2)cc1`, the “activity change, negative = inhibition” value was inactive: 5.04%.
With `Cc1cc(Cl)ccc1NC(=S)NCc1ccco1` the “activity change, negative = inhibition” value was inactive: -16.5%.
`Cc1cccc(-c2cc(=O)c(C(=O)O)cn2-c2ccc(F)cc2F)c1` was tested, and the “activity change, negative = inhibition” value was inactive: 15.2%.
In the case of `COc1ccc(S(=O)(=O)NNC(=O)c2cc3cc4ccccc4nc3s2)cc1`, the “activity change, negative = inhibition” value is reported as inactive: 16.5% [at 56.9 µM].
For `N#Cc1ccccc1OCc1cn(CC(=O)c2ccc(O)cc2)nn1`, the Potency was inconclusive: 50.1 µM [inhibitor, partial curve, poor fit].
`COc1ccc(NS(=O)(=O)c2cn(C)c(=O)n(C)c2=O)cc1` was tested, and the “activity change, negative = inhibition” value was inactive: 5.4%.
For `CNc1cc(F)nc(F)n1`, the Potency was inconclusive: 28.2 µM [inhibitor, full curve, poor fit].
In the case of `Cc1cccc(/C=N\Nc2nnc(-c3ccccc3)c(=O)[nH]2)c1`, the “activity change, negative = inhibition” value is reported as inactive: 25.4%.
With `CCOC(=O)c1c(N)ssc1=S` the Potency was inconclusive: 31.6 µM [inhibitor, full curve, poor fit].
`CCN(CC)CCn1c2ccccc2c2n[nH]c(=S)nc21` was tested, and the Potency was inconclusive: 79.4 µM [inhibitor, partial curve, poor fit].
In the case of `Cc1cccc(Cl)c1NC(=S)N1CCN(c2ccc([N+](=O)[O-])cn2)CC1`, the Potency is reported as inconclusive: 10 µM [inhibitor, full curve, poor fit].
`COc1ccc(Nc2ccc3c(c2)=NC2(CCCCC2)[N+]=3[O-])cc1` was tested, and the Potency was inconclusive: 79.4 µM [inhibitor, partial curve, poor fit].
In the case of `COc1ccc(/C=N/n2c(N)nc3ccccc32)cc1OC`, the Potency is reported as inconclusive: 79.4 µM [inhibitor, single point].
For `COc1ccc(-c2ccc3c(N)c(C(=O)c4ccc(OC)c(OC)c4)sc3n2)cc1`, the Potency was inconclusive: 50.1 µM [inhibitor, partial curve, poor fit].
For `N#Cc1c(Nc2ccccc2)[n+]([O-])c2ccc(Cl)cc2[n+]1[O-]`, the Potency was inconclusive: 100 µM [inhibitor, single point].
With `COc1ccc(NC(=S)NCCN2CCC(C)CC2)cc1Cl` the Potency was inconclusive: 10 µM [inhibitor, full curve, poor fit].
In the case of `Cc1ccc(S(=O)(=O)Oc2cccc(/C=N/Nc3ccc(C(=O)O)cc3)c2)cc1`, the “activity change, negative = inhibition” value is reported as inactive: -13.5%.
In the case of `Cc1cc(O)c(C(C)C)cc1NC(=S)Nc1cc(C(C)C)c(O)cc1C`, the Potency is reported as inconclusive: 63.1 µM [inhibitor, partial curve, poor fit].
In the case of `Nc1c(N=O)c(=O)[nH]c(=O)n1-c1ccccc1`, the “activity change, negative = inhibition” value is reported as inactive: 2.07%.
In the case of `O=Nc1ccc2oc(=O)ccc2c1`, the Potency is reported as active: 5.97 µM.
With `CCc1ccccc1NC(=O)CC1S/C(=N\c2nccs2)N(CC)C1=O` (stereo unspecified) the “activity change, negative = inhibition” value was inactive: 28.3%.
With `Cc1ccc(NC(=O)CSc2nc(=O)cc(N)n2-c2ccccc2)cc1` the Potency was “inactive”.
For `Cc1ccc(-c2cc(C(=O)NCC3CCCO3)c3ccccc3n2)cc1C` (stereo unspecified), the Potency was inconclusive: 89.1 µM [inhibitor, partial curve, poor fit].
With `COc1cc(C(=O)O)nc(OC)n1` the Potency was inconclusive: 70.8 µM [inhibitor, partial curve, poor fit].
